Reference: PubChem BioAssay AID1508642 (National Center for Advancing Translational Sciences (NCATS), 2021)
The whole screen tested about 43,000 compounds, of which about 200 (0.47%) were called active. Another 12% or so got no clear call; they are omitted. Calls come from the whole dose curve; as a rule, active = well fitted cell-killing curve with a large enough effect; inconclusive = small, poorly fitted or top-dose-only effect, or effect the other way; inactive = flat fitted curve, though single readings scatter. The list shows a part of the results.

Assay: Cell viability qHTS assay in S16 Pmp22-F2sN cells; note: nearly all actives have a fitted effect of over 65% in size
Conditions: S16 Pmp22-F2sN Schwann cells viability, CellTiter-Glo, 24 h; series mostly up to 57.5 µM; activity change, negative = cytotoxicity: at the top concentration
How it was run: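 S16 Pmp22-F2sN Schwann cells (500-1,000/well) in phenol-red-free DMEM with 10% FBS received 23 nL compound by pin tool for 24 h at 37 °C. Viability was then read as CellTiter-Glo luminescence after 15 min at room temperature.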
% is set by controls: 0 for no effect and ±100 for the full control effect.

Compound	activity change, negative = cytotoxicity
CCOC(=O)c1cccc(NS(=O)(=O)c2ccc3[nH]c4c(c3c2)CCCC4)c1	inactive: -23.2%
CCCCc1ccc(-n2nc3cc(Cl)c(NC(=O)c4ccc(OC)cc4)cc3n2)cc1	inactive: 7.38%
Cc1ccc(-n2cnc3cc(C(=O)NCc4ccc(F)cc4)ccc32)c(C)c1	inactive: 20.6%
Cc1ccc(NC(=O)CN2CCN(c3ccccc3F)CC2)cc1F	inactive: -0.535%
Cc1ccc(NC(=O)c2ccc(Cl)cc2Cl)c(C(=O)c2ccccc2)c1	inactive: -4.2%
CCOc1ccc(-c2cc3c(=O)n(Cc4nc(-c5ccccc5OCC)oc4C)ccn3n2)cc1Cl	inactive: 9.83%
O=S(=O)(NCc1ccc(Cl)cc1)c1ccc2[nH]c3c(c2c1)CCCC3	inactive: -1.49%
Cc1ccc(Cn2c(C)c(CNCC(C)c3ccccc3)c(C(=O)O)c2C)cc1 (stereo unspecified)	inactive: 0.651%
CCC(CC)C(=O)Nc1ccccc1SCc1cc(=O)c2cccc(C)c2[nH]1	inactive: -18%
COCCCNC(=O)C1CCC(Cn2c(=O)c3sccc3n(C)c2=O)CC1 (stereo unspecified)	inactive: 7.11%
Cc1nc2cccnc2n1C1CCN(C(=O)Nc2ccccc2)CC1	inactive: -0.397%
Cc1cc(C)cc(N2CC(c3nnc(NC(=O)c4ccco4)s3)CC2=O)c1 (stereo unspecified)	inactive: 1.34%
COc1cc(C(=O)Nc2ccc(-n3c(C)nc4ccccc4c3=O)cc2)cc(OC)c1OC	inactive: -23.8%
O=c1c(=O)n(-c2ccccc2)ccn1Cc1c(F)cccc1Cl	inactive: -0.212%
CCOc1cccc(NC(=O)c2sc3nc(-c4ccc(F)cc4)ccc3c2N)c1	inactive: 5.16%
COc1cc(CNCCSc2nnnn2C)ccc1OCc1ccc(C)cc1	inactive: -0.323%
CCSc1ncc(Cl)c(C(=O)N(Cc2ccccc2)c2ccc(OC)cc2)n1	inactive: -17.5%
O=C(COCc1cc(-c2cccs2)on1)N1CCN(c2ccc(F)cc2)CC1	inactive: 3.11%
CCOC(=O)C1CCN(C(c2ccc(OCC)cc2)c2c(O)cc(C)n(CCOC)c2=O)CC1 (stereo unspecified)	inactive: -2.95%
COc1ccc(CNS(=O)(=O)c2cc(Br)cc3c2N(C(C)=O)C(C)C3)cc1 (stereo unspecified)	inactive: 5.91%
O=C(NCc1cccc(F)c1)c1ccc(CN2CC(=O)N3CCCCC3C2=O)cc1 (stereo unspecified)	inactive: 8.16%
O=c1c2oc3ccccc3c2n(Cc2ccc(F)cc2)c(=O)n1Cc1ccco1	inactive: -3.45%
CCCCn1c(=NC(=O)c2c(-c3c(F)cccc3Cl)noc2C)c(C(=O)OCC)cc2c(=O)n3ccccc3nc21	inactive: -0.877%
Cc1ccc(-c2noc(-c3ccc(NCc4cccnc4)c([N+](=O)[O-])c3)n2)cc1	inactive: -3.56%

Compound	activity change, negative = cytotoxicity
Cc1c(C(=O)OCc2ccccc2)[nH]c2c1C(=O)CC(c1ccc(N(C)C)cc1)C2 (stereo unspecified)	inactive: -4.35%
COc1ccc(NC(=O)CN2C(=O)C(C)(C)c3cc(S(=O)(=O)N4CCCCC4)ccc32)cc1Cl	inactive: -1.57%
Cc1nn2c3c(cnc2c1-c1ccc(Cl)cc1)C(=O)CC(c1ccc(C(C)C)cc1)C3 (stereo unspecified)	inactive: 1.67%
CCc1sc(Nc2cccc(Cl)c2)nc1-c1cc2cccc(OC)c2oc1=O	inactive: -1.18%
COc1cccc(-n2c(SCC(=O)c3ccccc3)nc3c([nH]c4ccccc43)c2=O)c1	inactive: 29.6%
O=c1oc2cc(O)ccc2cc1-c1nc(-c2ccc(Cl)c(Cl)c2)cs1	inactive: 3.13%
CCCn1c(COc2cccc(C)c2)nc2ccccc21	inactive: -0.363%
Cc1ccc(S(=O)(=O)C(CNC(=O)COc2ccccc2)c2cccs2)cc1 (stereo unspecified)	inactive: 21.3%
CCCCNc1nc2c(-c3cccc(C)c3)nnn2c2ccccc12	inactive: -1.14%
COc1cc(C(=O)N2CCNC(=O)C2CC(=O)Nc2ccc(C)c(C)c2)cc(OC)c1OC (stereo unspecified)	inactive: 19.1%
Cc1ccccc1-c1nnc(SCC(=O)N(C)c2ccccc2)o1	inactive: 2.94%
COc1ccc2c(c1)c1c(c(=O)n(-c3ccccc3C)c(=O)n1CC(N)=O)n2C	inactive: 9.26%
CCCN(CCC)C(=O)Cn1c(=O)n(CCCCCC(=O)Nc2ccccc2)c(=O)c2sccc21	inactive: 8.76%
COC(=O)c1ccc(NC(=O)Cn2ccn3nc(-c4ccc(OC)cc4)cc3c2=O)cc1	inactive: -0.472%
Cc1ccc(CNC(=O)CCc2c(C)nc3c(-c4ccc(F)cc4)c(C)nn3c2C)cc1	inactive: 2.25%
Cc1cccc(OCC(=O)Nc2cccc(C(=O)OCc3cc(=O)n4nc(C(C)C)sc4n3)c2)c1	inactive: 1.36%
Cc1ccc(/C=C/c2onc(C)c2S(=O)(=O)N2CCC(C(=O)Nc3ccc(OC(F)(F)F)cc3)CC2)cc1	inactive: -2.01%
O=C(NCC(c1cccnc1)N1CCc2ccccc2C1)C(=O)Nc1ccccc1F (stereo unspecified)	inactive: -28.6%
CCN(C(=O)CCS(=O)(=O)c1ccc2c(c1)CCN2C(C)=O)c1cccc(C(F)(F)F)c1	inactive: 14.2%
O=C(Nc1ccc(-c2nc3ccccc3o2)c(O)c1)c1cc(Cl)ccc1Cl	inactive: -17%
O=C(/C=C\c1ccc2c(c1)OCO2)NC1CC(=O)N(c2ccccc2)C1 (stereo unspecified)	inactive: 8.88%
CSc1ccc(CNC(=O)Cn2c(-c3cccs3)cc3cc(F)ccc32)cc1	inactive: -3.03%
O=C(Cn1nc(Cc2ccncc2)c2ccccc2c1=O)Nc1cccc(C(F)(F)F)c1	inactive: -21.4%
CNC(=O)c1c(NC(=O)c2cc(=O)c3cc(C)c(C)cc3o2)sc2c1CCCC2	inactive: -12.7%

Compound	activity change, negative = cytotoxicity
CCN(CC)CCN(C(=O)c1ccco1)c1nc2c(C)c(C)ccc2s1	inactive: -12.1%
COc1ccccc1CNC(=O)Cn1c(-c2ccc(F)cc2)cc(C(C)=O)c1C	inactive: 3.47%
Cc1ccc(-c2cc(C(F)(F)F)n3nc(-c4cccc(Br)c4)cc3n2)cc1	inactive: -0.726%
CC(=O)Nc1ccc(NC(=O)CN2C(=O)CC(c3ccco3)Sc3ccccc32)cc1 (stereo unspecified)	inactive: -0.693%
CCn1c(=O)cc(OCC(=O)N2CCN(c3ccc(C(C)=O)cc3)CC2)c2ccccc21	inactive: 2.68%
COc1ccc(N2CCN(C(=O)CN3CCSc4ccccc43)CC2)cc1	inactive: 8%
CN(C(=O)c1c[nH]c2ccc(S(=O)(=O)Nc3cccc(C(F)(F)F)c3)cc2c1=O)C1CCCCC1	inactive: -4.75%
O=C(NCCc1ccc(Cl)cc1)c1nnc(Cc2ccc(F)cc2)o1	inactive: 2.94%
O=C(CCSCc1ccc(Cl)cc1)NCCc1ccccc1	inactive: -1.56%
CCCCNC(=O)CC1Nc2cc(C)c(C)cc2NC1=O (stereo unspecified)	inactive: -1.11%
COc1ccccc1NC(=O)c1nn(C)c2c1CS(=O)(=O)c1ccccc1-2	inactive: 0.722%
CN(C)S(=O)(=O)c1ccc(C(=O)NCCSc2c(-c3ccc(Br)cc3)[nH]c3ccccc23)cc1	inactive: -29.4%
Cc1c(Cl)cccc1N1CCn2c1nc1c2c(=O)n(CC(=O)O)c(=O)n1C	inactive: -11.4%
O=C(Cn1cc(SCc2ccc(Br)cc2)c2ccccc21)N1CCCCC1	inactive: -27.3%
Cc1ccc(/C=C(\C#N)C(=O)Nc2ccc(Br)cc2)o1	inactive: 3.17%
CCC(Sc1ncc(S(=O)(=O)c2ccc(C)cc2)c(=O)[nH]1)C(=O)Nc1cc(C)ccc1C (stereo unspecified)	inactive: 9.23%
CCc1ccc(NC(=O)CN2CCN(C3CCCCC3)C(=O)C2=O)cc1	inactive: 9.16%
Cc1ccc2oc(=O)c(S(=O)(=O)c3ccc(F)cc3)cc2c1	inactive: 4.39%
CCc1nc2ccc(C(=O)NCc3ccc(N(C)C)cc3)cc2nc1CC	inactive: -27.8%
COc1ccc(NC(=O)c2ccco2)cc1NC(=O)c1ccc(C)c(C)c1	inactive: 5.34%
CCN(C(=O)CSc1nc2ccccc2n1Cc1ccc(C(=O)OC)cc1)c1ccccc1	inactive: 0.525%
COc1ccc(CCN2C(=O)NC(NC(=O)c3ccccc3OC)(C(F)(F)F)C2=O)cc1OC (stereo unspecified)	inactive: -0.996%
C=C(C)Cn1c(=O)c2c(nc3n2CCN3c2cc(C)cc(C)c2)n(C)c1=O	inactive: 11.3%
COc1ccc(N2CCN(C(=O)C3CCN(Cc4nc(-c5ccc(Cl)cc5)oc4C)CC3)CC2)cc1	inactive: -1.64%

Compound	activity change, negative = cytotoxicity
CN(C)CCNC(=O)CN1N=C(c2ccccc2)CCC1=O	inactive: -1.85%
CCCC(=O)N1CCc2cc(OC)c(OC)cc2C1COc1ccc2c(C)cc(=O)oc2c1 (stereo unspecified)	inactive: 1%
COc1ccc2c(c1)CC(C(=O)NCCN1CCN(c3ccccc3F)CC1)CO2 (stereo unspecified)	inactive: 5.17%
COc1ccc(CNc2nc(-c3ccc(OC)cc3)cc(C(F)(F)F)n2)cc1	inactive: -2.5%
COc1ccc(NC(=O)Cn2c(=O)cc(C)c3c(C)nn(C)c32)cc1	inactive: 0.839%
CCCSc1ncc(Cl)c(C(=O)Nc2ccc(S(=O)(=O)N3CCC(C)CC3)cc2)n1	inactive: -9.57%
CCOc1ccc(NC(=O)Cn2cc(C(=O)c3ccc(CC)cc3)c(=O)c3cc4c(cc32)OCO4)cc1	inactive: 13.7%
Cc1ccc(Cl)cc1N1CCN(C(=O)c2cnn(C(C)(C)C)c2C2CCN(C(=O)OC(C)(C)C)CC2)CC1	inactive: -7.16%
COc1ccc(NC(=O)c2cnc(Nc3ccc(C)c(Cl)c3)c3ccccc23)c(OC)c1	inactive: 4.44%
Cc1ccccc1CCNC(=O)c1ccc(NC(=O)N2CC(C)Sc3ccccc32)cc1 (stereo unspecified)	inactive: -9.14%
O=C(COc1ccc(Cl)cc1)NCC(c1ccco1)S(=O)(=O)c1ccccc1 (stereo unspecified)	inactive: 3.5%
COc1ccccc1NC(=O)c1sc2nc3c(c(C(F)(F)F)c2c1N)CN(C(C)=O)CC3	inactive: -1.48%
Cc1cc(C)c(NC(=O)CSc2n[nH]c(-c3ccccc3Cl)n2)c(C)c1	inactive: 1.34%
Cc1nn(-c2ccc(N3CCOCC3)nn2)c(C)c1CCC(=O)NCc1ccccc1	inactive: -21.3%
CCn1nc(C)c2c(-c3ccccc3)cc(=O)n(C(C)C(=O)Nc3cccc(F)c3)c21 (stereo unspecified)	inactive: -4.76%
CCc1ccc(NC(=O)C(=O)NCCc2csc(-c3cccc(F)c3)n2)cc1	inactive: 6.75%
CSc1nn(Cc2ccccc2C)c(NC(C)=O)c1S(=O)(=O)c1ccc(C)cc1	inactive: -1.19%
COc1ccc(NC(=O)CCc2nc3c(C)nn(-c4ccc(C)cc4)c3n(C)c2=O)c(OC)c1	inactive: 1.2%
CCOC(=O)CCn1c(=O)c2cccn2c2cccnc21	inactive: 3.07%
Cc1ccc2nc(-c3ccsc3)c(Nc3ccc(C(C)C)cc3)n2c1	inactive: 2.43%
COc1ccccc1C(=O)Nc1ccc2nc(SCC(=O)N3CCCC3)sc2c1	inactive: -5.93%
COCCNC(=O)CCCn1c(SCC(=O)c2ccc(F)cc2)nc2c(sc3ccccc32)c1=O	inactive: -1.8%
Cc1ccc(NC(=O)/C(C#N)=C\c2ccc(-c3ccc(Cl)cc3)o2)c(C)c1	inactive: -5.12%
CCOc1ccc(-c2c(C)nn3c(C)c(C(=O)Nc4cccc(Cl)c4C)cnc23)cc1OCC	inactive: -1.58%
